According to patent publication US9133439B2, “Differentiation of human embryonic stem cells” (Janssen Biotech, Inc., priority 2009, dated 2015):

Tests used:
[1] = system: NGN3 expression in differentiated H1 human embryonic stem cells; conditions: for NGN3 Intensity RATIO: ratio of NGN3 staining for well treated with individual compound relative to average staining in wells with DMSO alone; for NGN3 RANK: 2.5 μM compound in steps 3 and 4, with Trichostatin A, ordered ranking of top 16 hits
[2] = system: NKX6.1 expression in differentiated H1 human embryonic stem cells; conditions: for NKX6.1 Intensity RATIO: ratio of NKX6.1 staining for well treated with individual compound relative to average staining in wells with DMSO alone; for NKX6.1 RANK: 2.5 μM compound in steps 3 and 4, with Trichostatin A, ordered ranking of top 16 hits
[3] = system: NGN3 expression in differentiated H1 human embryonic stem cells; test: Example 1: kinase inhibitor library screen, NGN3 expression by high content analysis after differentiation; format: cell-based
[4] = inhibitor dosed at stage 3 only, NGN3 total intensity as ratio to control, EMDII and BioMol kinase inhibitor libraries
[5] = inhibitor dosed at stage 4 only, NGN3 total intensity as ratio to control, EMDII and BioMol kinase inhibitor libraries
[6] = inhibitor dosed at stages 3 and 4, NGN3 total intensity as ratio to control, EMDII and BioMol kinase inhibitor libraries

Row | SMILES | NGN3 Intensity RATIO, Dose Stage 3 [3, 4] | NGN3 Intensity RATIO, Dose Stage 4 [3, 5] | NGN3 Intensity RATIO, Dose Stages 3 & 4 [3, 6] | further results
1 | CS(=O)(=O)O.Cn1cc(C2=C(c3cn(CCCSC(=N)N)c4ccccc34)C(=O)NC2=O)c2ccccc21 [Ro 31-8220] | – | – | – | NGN3 Intensity RATIO [1]: 0.30; NKX6.1 Intensity RATIO [2]: 0.48
2 | O=C(O)c1cc(NCc2cc(O)ccc2O)ccc1O [HDBA, 2-Hydroxy-5-(2,5-dihydroxybenzylamino)benzoic acid] | – | – | – | NGN3 Intensity RATIO [1]: 0.64; NKX6.1 Intensity RATIO [2]: 0.88
3 | NC(=O)c1ccc2nc(-c3ccc(Oc4ccc(Cl)cc4)cc3)[nH]c2c1 [Chk2 Inhibitor II] | 1.23 | 1.00 | 1.11 | –
4 | N#CC(c1ccnc(NCCc2cccnc2)n1)c1nc2ccccc2s1 (stereo not drawn) [JNK Inhibitor V] | 0.66 | 0.85 | 0.39 | –
5 | N#CC(=C(N)Sc1ccc(N)cc1)c1ccccc1C(F)(F)F [MEK1/2 Inhibitor] | 1.03 | 0.77 | 1.60 | NGN3 Intensity RATIO, Dose Stages 3 & 4 ([3]; 2.5 μM compound during combined stages 3 and 4, NGN3 staining intensity relative to DMSO vehicle wells): 1.60; NGN3 intensity RANK, Dose Stages 3&4 ([3]; 2.5 μM compound during combined stages 3 and 4, rank order among both kinase inhibitor libraries): 20; NGN3 Intensity RATIO, Dose Stage 3 ([3]; 2.5 μM compound during stage 3 alone, NGN3 staining intensity relative to DMSO vehicle wells): 1.03; NGN3 intensity RANK, Dose Stage 3 ([3]; 2.5 μM compound during stage 3 alone, rank order among both kinase inhibitor libraries): 94; NGN3 Intensity RATIO, Dose Stage 4 ([3]; 2.5 μM compound during stage 4 alone, NGN3 staining intensity relative to DMSO vehicle wells): 0.77; NGN3 intensity RANK, Dose Stage 4 ([3]; 2.5 μM compound during stage 4 alone, rank order among both kinase inhibitor libraries): 110
6 | CN[C@@H]1C[C@H]2O[C@@](C)([C@@H]1OC)n1c3ccccc3c3c4c(c5c6ccccc6n2c5c31)C(=O)NC4 [Staurosporine] | – | – | – | NGN3 Intensity RATIO [1]: 0.30; NKX6.1 Intensity RATIO [2]: 0.17
7 | N#CC(C#N)=Cc1cc(O)c(O)c(O)c1 [Tyrphostin 25] | – | – | – | NGN3 Intensity RATIO [1]: 1.24; NKX6.1 RANK [2]: 5; NKX6.1 Intensity RATIO [2]: 4.68
8 | COC[C@H]1OC(=O)c2coc3c2[C@@]1(C)C1=C(C3=O)[C@@H]2CCC(=O)[C@@]2(C)C[C@H]1OC(C)=O [Wortmannin] | – | – | – | NGN3 RANK [1]: 9; NKX6.1 RANK [2]: 9
9 | O=S(=O)(c1cccc2c(I)cccc12)N1CCCNCC1 [ML-7] | – | – | – | NKX6.1 RANK [2]: 12
10 | Cl.Cl.O=S(=O)(NCCNC/C=C/c1ccc(Br)cc1)c1cccc2cnccc12 [H-89] | – | – | – | NGN3 RANK [1]: 4; NKX6.1 RANK [2]: 3
11 | Oc1c2ccccc2c2c3c(cccc13)N=N2 [SP 600125] | – | – | – | NGN3 Intensity RATIO [1]: 1.09; NKX6.1 Intensity RATIO [2]: 1.67
12 | CO[C@@H]1[C@H](N(C)C(=O)c2ccccc2)C[C@H]2O[C@]1(C)n1c3ccccc3c3c4c(c5c6ccccc6n2c5c31)C(=O)NC4 [PKC-412] | – | – | – | NGN3 Intensity RATIO [1]: 0.39; NKX6.1 Intensity RATIO [2]: 0.45
13 | CC(C)[C@H](CO)Nc1nc(Nc2cccc(Cl)c2)c2ncn(C(C)C)c2n1 [Purvalanol A] | 0.91 | 0.53 | 0.32 | –
14 | Cn1sc(=O)n(Cc2ccccc2)c1=O [GSK-3b Inhibitor I] | 1.03 | 0.97 | 0.89 | –
15 | O=C(Nc1cccc(Nc2nccc(Nc3cccc(C(F)(F)F)c3)n2)c1)C1CC1 [Aurora Kinase Inhibitor III] | 1.10 | 1.00 | 1.03 | –
16 | Cc1ccc(-c2nn(C(C)(C)C)c3ncnc(N)c23)cc1 [PP1] | – | – | – | NGN3 RANK [1]: 12
17 | N#C/C(=C/c1ccc(O)c(O)c1)C(=O)NCc1ccccc1 [AG-490] | – | – | – | NKX6.1 RANK [2]: 16
18 | N#Cc1cnc2cnc(NCc3cccnc3)cc2c1Nc1ccc(F)c(Cl)c1 [Tpl2 Kinase Inhibitor] | 0.99 | 0.97 | 0.96 | –
19 | COc1ccc(CNC(=O)Nc2ncc([N+](=O)[O-])s2)cc1 [GSK-3b Inhibitor VIII] | 1.17 | 0.85 | 0.60 | –
20 | Oc1ccc(-c2nc(-c3ccc(F)cc3)c(-c3ccncc3)[nH]2)cc1 [SB-202190] | – | – | – | NGN3 RANK [1]: 13
21 | N#C/C(=C(/N)Sc1ccccc1N)c1cccc(C(O)c2ccncc2)c1 (stereo not drawn) [MEK Inhibitor I] | 0.74 | 0.85 | 0.91 | –
